According to publication PMC12404741:

Experiment: immunofluorescence colocalisation with Na/K ATPase, Huh7
Details: glycan lost; control: GPR31-WT

Protein	localisation_or_trafficking
GPR31: N5Q (protein) parent chain: MPFPNCSAPSTVVATAVGVLLGLECGLGLLGNAVALWTFLFRVRVWKPYAVYLLNLALADLLLAACLPFLAAFYLSLQAWHLGRVGCWALHFLLDLSRSVGMAFLAAVALDRYLRVVHPRLKVNLLSPQAALGVSGLVWLLMVALTCPGLLISEAAQNSTRCHSFYSRADGSFSIIWQEALSCLQFVLPFGLIVFCNAGIIRALQKRLREPEKQPKLQRAQALVTLVVVLFALCFLPCFLARVLMHIFQNLGSCRALCAVAHTSDVTGSLTYLHSVLNPVVYCFSSPTFRSSYRRVFHTLRGKGQAAEPPDFNPRDSYS	decreases
GPR31: N158Q (protein) parent chain: MPFPNCSAPSTVVATAVGVLLGLECGLGLLGNAVALWTFLFRVRVWKPYAVYLLNLALADLLLAACLPFLAAFYLSLQAWHLGRVGCWALHFLLDLSRSVGMAFLAAVALDRYLRVVHPRLKVNLLSPQAALGVSGLVWLLMVALTCPGLLISEAAQNSTRCHSFYSRADGSFSIIWQEALSCLQFVLPFGLIVFCNAGIIRALQKRLREPEKQPKLQRAQALVTLVVVLFALCFLPCFLARVLMHIFQNLGSCRALCAVAHTSDVTGSLTYLHSVLNPVVYCFSSPTFRSSYRRVFHTLRGKGQAAEPPDFNPRDSYS	no change
GPR31: DNQ (protein) parent chain: MPFPNCSAPSTVVATAVGVLLGLECGLGLLGNAVALWTFLFRVRVWKPYAVYLLNLALADLLLAACLPFLAAFYLSLQAWHLGRVGCWALHFLLDLSRSVGMAFLAAVALDRYLRVVHPRLKVNLLSPQAALGVSGLVWLLMVALTCPGLLISEAAQNSTRCHSFYSRADGSFSIIWQEALSCLQFVLPFGLIVFCNAGIIRALQKRLREPEKQPKLQRAQALVTLVVVLFALCFLPCFLARVLMHIFQNLGSCRALCAVAHTSDVTGSLTYLHSVLNPVVYCFSSPTFRSSYRRVFHTLRGKGQAAEPPDFNPRDSYS	decreases
